Assay results as given in PubChem BioAssay AID624296 (National Center for Advancing Translational Sciences (NCATS), 2012).
Out of some 350,000 compounds screened, about 9,900 (2.8%) were called active. The shares of active, inactive and inconclusive entries below differ from those in the screen. The call rests on the fitted dose curve; in most records, active means well fitted activation curve with a large enough effect; inconclusive means small, poorly fitted or top-dose-only effect; inactive means no such curve, though single readings can be large or run the other way. No potency is given beside an inconclusive call; the fits are too rough.

assay: A quantitative high throughput screen for small molecules that induce DNA re-replication in MCF 10a normal breast cells.; further: nearly all actives have a fitted effect of over 50% in size; details: MCF 10A DNA re-replication, Hoechst nuclear intensity, 48 h; series mostly up to 46.1 µM
Potency means the concentration at half of the fitted maximal effect; tags describe the fitted curve by direction and shape.

**Q.** For `Cc1cc(C2=NNC(=NC3CC3)SC2)c(C)n1-c1ccccc1F`, which Potency is on record?
**A.** active: 18.4 µM

**Q.** For `COc1ccccc1NC(=O)C(=O)N1N=C(C(C)C)CC1(O)C(F)(F)F` (stereo not given), which Potency is on record?
**A.** active: 8.2 µM

**Q.** Which Potency does the source give for `CCCCCCCCCS(=O)(=O)N/N=C/c1cccc([N+](=O)[O-])c1` here?
**A.** active: 14.6 µM

**Q.** With `COC(=O)c1ccccc1N(C)S(=O)(=O)c1cc2c(cc1C)OCC(=O)N2` as the compound, how does the Potency read?
**A.** inconclusive [activator, single point]

**Q.** With `Cc1cc(OCc2ccc(F)cc2)nc(-c2ccccc2O)n1` as the compound, how does the Potency read?
**A.** inconclusive [activator, full curve, poor fit]

**Q.** For `CN(Cc1ccc(Cl)cc1)C(=O)CNC(=O)C12CC3CC(CC(C3)C1)C2`, which Potency is on record?
**A.** inconclusive [activator, single point]

**Q.** For `COc1ccc(OC)c(NC(=O)c2ccccc2OC(C)=O)c1`, which Potency is on record?
**A.** inconclusive [activator, single point]

**Q.** With `O=C(NC1CCCC1)c1cnn2c(C(F)(F)F)cc(-c3ccco3)nc12` as the compound, how does the Potency read?
**A.** inconclusive [activator, partial curve, poor fit]

**Q.** With `Cc1ccc2nc(-c3ccc(NS(=O)(=O)c4ccc(F)cc4)cc3)sc2c1` as the compound, how does the Potency read?
**A.** active: 14.6 µM

**Q.** For `Cc1cccc(-c2nnc(-c3cccc4ccccc34)o2)c1`, which Potency is on record?
**A.** inconclusive [activator, single point]

**Q.** For `COc1ccc(NCc2nnc(SCC(=O)c3ccc(OC)cc3)o2)cc1`, which Potency is on record?
**A.** inconclusive [activator, single point]

**Q.** For `CC(C)(C)OC(=O)CC[C@@H](C(=O)NCCCCCCCCCCC(=O)N1CCN(C(=O)OC(C)(C)C)CC1)n1cc(CCCCCNC(=O)OC(C)(C)C)nn1`, which Potency is on record?
**A.** inconclusive [activator, full curve, poor fit]

**Q.** For `O=C(NCCCN1CCCC1=O)c1ccc(Cl)c(S(=O)(=O)N2CCCCC2)c1`, which Potency is on record?
**A.** inactive

**Q.** For `O=C(Nc1ccc(C2CC2(Cl)Cl)cc1)c1ccccc1Br` (stereo not given), which Potency is on record?
**A.** inconclusive [activator, partial curve, poor fit]

**Q.** Which Potency does the source give for `Cc1cc(OCC(=O)NNC(=S)NC(=O)c2cccs2)ccc1Cl` here?
**A.** inactive

**Q.** For `O=C(N=Nc1c(O)n(Cc2ccccc2)c2ccccc12)c1ccncc1`, which Potency is on record?
**A.** inactive

**Q.** Which Potency does the source give for `Cc1ccc(CNC(=O)CN(C(=O)C2(C)CC(=O)N=C3C=CC=CN32)c2cccc(C)c2C)cc1` (stereo not given) here?
**A.** inactive

**Q.** For `Cc1nc(CC(=O)c2ccc(O)c(C)c2O)cs1`, which Potency is on record?
**A.** inactive

**Q.** Which Potency does the source give for `Cc1ccc(S(=O)(=O)CC(=O)Nc2cc(C)on2)cc1` here?
**A.** inconclusive [activator, partial curve, poor fit]

**Q.** Which Potency does the source give for `CN=c1scc(C)n1/N=C/c1cc(Br)c(O)c(Br)c1` here?
**A.** inconclusive [activator, partial curve, poor fit]

**Q.** For `COC(=O)c1ccccc1NC(=O)CCS(=O)(=O)c1ccc(Br)cc1`, which Potency is on record?
**A.** inactive

**Q.** With `O=C1c2ccccc2S(=O)(=O)c2cc(N3CCC4(CC3)OCCO4)ccc21` as the compound, how does the Potency read?
**A.** inconclusive [activator, partial curve, poor fit]

**Q.** With `CC(C)c1ccc(-c2c(C#N)c(N)nc(SCC(=O)N3CCCCCC3)c2C#N)cc1` as the compound, how does the Potency read?
**A.** inactive

**Q.** With `Cc1c(NC(=O)/C(C#N)=C/c2c(Oc3ccccc3)nc3ccccn3c2=O)c(=O)n(-c2ccccc2)n1C` as the compound, how does the Potency read?
**A.** inconclusive [activator, full curve, poor fit]

**Q.** Which Potency does the source give for `Cc1cc(C)c(NC(=O)CCCN2CCOCC2)c(C)c1` here?
**A.** inactive

**Q.** For `O=C(NCCc1nnc2ccccn12)c1cccs1`, which Potency is on record?
**A.** inconclusive [activator, single point]

**Q.** Which Potency does the source give for `CCN1C[C@@H]2[C@@H]3C(=O)N(C)C(=O)[C@@H]3[C@](CC)(C(=O)OC)N2C1=NCc1ccccc1` here?
**A.** inactive

**Q.** Which Potency does the source give for `Cc1cc(-n2c(SCC(=O)Nc3ccc(F)c(F)c3)nc3n[nH]c(C)c3c2=N)ccc1Cl` here?
**A.** active: 2.31 µM

**Q.** Which Potency does the source give for `CCOC(=O)C(Cc1ccccc1)C(=O)NCc1ccccc1` (stereo not given) here?
**A.** inactive

**Q.** For `Cc1ccc(NS(=O)(=O)c2ccc(N3CCN(c4ccc(O)cc4)CC3)c([N+](=O)[O-])c2)c(C)c1`, which Potency is on record?
**A.** inconclusive [activator, partial curve]

**Q.** Which Potency does the source give for `Cc1c(C)c2c(c(C)c1O)CCC(C)(COc1ccc(CC3SC(=O)NC3=O)cc1)O2` (stereo not given) here?
**A.** inconclusive [activator, full curve]

**Q.** Which Potency does the source give for `O=C(Nc1cccc(Cl)c1)OCCN1CCN(Cc2ccccc2)CCC1=O` here?
**A.** inactive

**Q.** With `Cc1cc(=O)[nH]c(N/N=C2/CCCC/C2=C\c2ccccc2)n1` as the compound, how does the Potency read?
**A.** inactive

**Q.** For `CCC(CO)N=C1CC(C)(C)CC(=O)/C1=C(/O)CCCN1C(=O)c2ccccc2C1=O` (stereo not given), which Potency is on record?
**A.** inconclusive [activator, partial curve, poor fit]

**Q.** For `COc1ccc(F)c(CN2CCC(n3nccc3NC(=O)C3CCOC3)CC2)c1` (stereo not given), which Potency is on record?
**A.** inconclusive [activator, single point]

**Q.** With `CCc1nonc1NC(=O)c1oc2ccccc2c1C` as the compound, how does the Potency read?
**A.** inconclusive [activator, partial curve, poor fit]

**Q.** Which Potency does the source give for `Cc1sc(NC(=O)c2ccco2)nc1-c1ccccc1` here?
**A.** inactive

**Q.** With `CNC(=O)/C(C#N)=C/c1c(N2CCCCCC2)nc2ccccn2c1=O` as the compound, how does the Potency read?
**A.** inconclusive [activator, single point]

**Q.** For `O=C(CSc1cccc(C(F)(F)F)c1)Nc1nnc(C2CC2)s1`, which Potency is on record?
**A.** inconclusive [activator, single point]

**Q.** For `Cc1cc(C)c(NC(=O)COc2nc3ccccc3nc2C)c(C)c1`, which Potency is on record?
**A.** inconclusive [activator, single point]

**Q.** Which Potency does the source give for `CC(OC(=O)c1ccco1)C(=O)Nc1ccc(C(F)(F)F)cc1` (stereo not given) here?
**A.** inactive

**Q.** For `CN1CCN(S(=O)(=O)c2ccc(-c3ccc(Cl)cc3)cc2)CC1`, which Potency is on record?
**A.** inconclusive [activator, full curve, poor fit]

**Q.** With `COc1cc(OC)cc(C(=O)NCC(=O)OCC(=O)/C=C2/N(C)c3ccccc3C2(C)C)c1` as the compound, how does the Potency read?
**A.** inconclusive [activator, single point]

**Q.** Which Potency does the source give for `Cc1c(C(=O)N2CCN(S(=O)(=O)c3ccccc3)CC2)oc2ccc(Br)cc12` here?
**A.** inactive

**Q.** For `C=CCn1c(CSCc2ccc(Cl)cc2Cl)nnc1SCC(=O)Nc1ccc(C(=O)O)cc1`, which Potency is on record?
**A.** inactive

**Q.** Which Potency does the source give for `COc1ccc(S(=O)(=O)N(C)C)cc1NCC(=O)Nc1ccc(Br)cc1F` here?
**A.** inactive

**Q.** For `CCOc1ccc(C(=O)c2cc3ccc(O)cc3oc2=O)cc1`, which Potency is on record?
**A.** inconclusive [activator, single point]

**Q.** Which Potency does the source give for `CC1C/C(=C/c2ccncc2)C(=O)/C(=C/c2ccncc2)C1` (stereo not given) here?
**A.** active: 0.461 µM

**Q.** For `COc1cc(/C=C(/C#N)c2ccc(F)cc2)ccc1Oc1ccc([N+](=O)[O-])cn1`, which Potency is on record?
**A.** inconclusive [activator, partial curve, poor fit]

**Q.** Which Potency does the source give for `Cc1cc(N2CCCC2)ccc1/C=C1/C(=O)N(C)C(=S)N1C` here?
**A.** inactive

**Q.** For `O=S1(=O)CCC(NC(=S)SCc2ccccc2Br)C1` (stereo not given), which Potency is on record?
**A.** inconclusive [activator, single point]

**Q.** Which Potency does the source give for `O=S(=O)(c1cccc(-c2nnc(SCc3ccc(Cl)cc3)o2)c1)N1CCCCC1` here?
**A.** inconclusive [activator, single point]

**Q.** With `CCOC(=O)CCC(=O)N1CCOCCOCCOCC1` as the compound, how does the Potency read?
**A.** inconclusive [activator, single point]

**Q.** For `CC(=O)Oc1ccc(OC(C)=O)c(SCCCCCCl)c1`, which Potency is on record?
**A.** inconclusive [activator, single point]

**Q.** Which Potency does the source give for `N#Cc1nc(Cc2cccc3ccccc23)oc1N1CCCCC1` here?
**A.** inconclusive [activator, partial curve, poor fit]

**Q.** Which Potency does the source give for `COC(=O)Cc1[nH]n(-c2nc3ccccc3s2)c(=O)c1C(C)=O` here?
**A.** inactive

**Q.** With `COCCNC(=O)c1cc(-c2ccccc2OC)on1` as the compound, how does the Potency read?
**A.** inconclusive [activator, full curve, poor fit]

**Q.** For `COCCN1CC(CNC(=O)c2cc(COc3ccccc3SC)on2)CC1=O` (stereo not given), which Potency is on record?
**A.** inactive

**Q.** Which Potency does the source give for `Cc1ccc(C)c(S(=O)(=O)N2CCN(C(=O)CCCc3c[nH]c4ccccc34)CC2)c1` here?
**A.** inconclusive [activator, single point]

**Q.** Which Potency does the source give for `Cn1[nH]c(CSc2ccc(Cl)cc2)cc1=O` here?
**A.** inconclusive [activator, single point]

**Q.** Which Potency does the source give for `O=[N+]([O-])c1cc(C(F)(F)F)ccc1NCCCCNS(=O)(=O)c1ccc2ccccc2c1` here?
**A.** inactive

**Q.** Which Potency does the source give for `CCCc1cc(=O)oc2c3c(cc(OCC(=O)NCc4ccccn4)c12)OC(C)(C)CC3` here?
**A.** inconclusive [activator, single point]

**Q.** With `O=C(NC(NC(=S)Nc1c(Cl)cccc1Cl)C(Cl)(Cl)Cl)OCc1ccccc1` (stereo not given) as the compound, how does the Potency read?
**A.** inconclusive [activator, single point]

**Q.** For `C=CCOc1ccc(CNn2cn[nH]c2=S)cc1OCC`, which Potency is on record?
**A.** inactive

**Q.** For `Oc1ccc(/C=N/N2CCN(c3ccccn3)CC2)cc1`, which Potency is on record?
**A.** inconclusive [activator, partial curve, poor fit]

**Q.** With `COc1ccccc1NS(=O)(=O)c1cc(-c2cnc(C3CC3)o2)ccc1C` as the compound, how does the Potency read?
**A.** inconclusive [activator, single point]

**Q.** With `CCCn1c(N)c(Sc2ccccc2[N+](=O)[O-])c(=O)n(CCC)c1=O` as the compound, how does the Potency read?
**A.** inconclusive [activator, single point]

**Q.** For `CCOC(=O)N1CCC2CC1c1cc(-c3cccc(OC)c3)ccc12` (stereo not given), which Potency is on record?
**A.** inconclusive [activator, partial curve, poor fit]

**Q.** For `CCN1CCN(C(=O)COCc2cc(-c3ccc4c(c3)OCO4)on2)CC1`, which Potency is on record?
**A.** inactive

**Q.** With `O=C1OCC2=C1C(c1ccc(F)cc1)c1cc3c(cc1N2)OCCO3` (stereo not given) as the compound, how does the Potency read?
**A.** inconclusive [activator, partial curve, poor fit]
